Results reported in the BET-seq Pho4 binding data (Le et al. 2018).
The other results are listed elsewhere or left out. These are noisy estimates, calculated here from bound and input reads.

These sequences were tested against T1, Pho4 (S. cerevisiae) (UniProt P07270) (assay: relative binding free energy (BET-seq); higher = weaker binding). Conditions: reference: library average.
T1 sequence: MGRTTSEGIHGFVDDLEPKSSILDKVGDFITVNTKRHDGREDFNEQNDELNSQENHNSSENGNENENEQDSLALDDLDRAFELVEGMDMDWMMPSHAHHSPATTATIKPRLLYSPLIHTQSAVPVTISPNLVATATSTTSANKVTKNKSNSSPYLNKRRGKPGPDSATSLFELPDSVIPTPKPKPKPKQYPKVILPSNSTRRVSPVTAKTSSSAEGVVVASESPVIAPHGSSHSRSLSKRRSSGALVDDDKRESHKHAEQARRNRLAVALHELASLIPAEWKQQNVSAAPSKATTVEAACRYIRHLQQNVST
For TGTTTCACGTGTTGTC, the “relative binding free energy” value was 0.21 kcal/mol. GGGGGCACGTGCTTTT was tested, and the “relative binding free energy” value was -0.12 kcal/mol. For AGATACACGTGGTAAT, the “relative binding free energy” value was 0.12 kcal/mol. In the case of GACGGCACGTGGGCGG, the “relative binding free energy” value is reported as -0.11 kcal/mol. With GTGTACACGTGTGGTG the “relative binding free energy” value was -0.01 kcal/mol. TGTATCACGTGATTAG was tested, and the “relative binding free energy” value was 0.05 kcal/mol. With AAATTCACGTGTTATG the “relative binding free energy” value was 0.16 kcal/mol. For GAGGGCACGTGAGGGG, the “relative binding free energy” value was 0.24 kcal/mol. With GATTACACGTGTGATA the “relative binding free energy” value was 0.35 kcal/mol. For TTTGTCACGTGAAAAT, the “relative binding free energy” value was 0.37 kcal/mol. TAGGGCACGTGCAATT was tested, and the “relative binding free energy” value was -0.08 kcal/mol. GAGTGCACGTGTGCTT was tested, and the “relative binding free energy” value was -0.01 kcal/mol. In the case of CTGTCCACGTGGGTCT, the “relative binding free energy” value is reported as 0.01 kcal/mol. For GAAAACACGTGGGTGG, the “relative binding free energy” value was -0.03 kcal/mol. In the case of CATTGCACGTGAGATG, the “relative binding free energy” value is reported as 0.26 kcal/mol. In the case of GGTGCCACGTGAGGAA, the “relative binding free energy” value is reported as 0.21 kcal/mol. GAAAGCACGTGGCGGG was tested, and the “relative binding free energy” value was -0.18 kcal/mol. With TGCGGCACGTGATATG the “relative binding free energy” value was -0.03 kcal/mol. TTAAGCACGTGTTATA was tested, and the “relative binding free energy” value was -0.1 kcal/mol. With TCTTACACGTGGTTTA the “relative binding free energy” value was 0.09 kcal/mol. TAGGTCACGTGTGGCG was tested, and the “relative binding free energy” value was 0.06 kcal/mol. In the case of CTGGGCACGTGGTCGG, the “relative binding free energy” value is reported as -0.32 kcal/mol. AGAAACACGTGTTATT was tested, and the “relative binding free energy” value was 0.15 kcal/mol. TAGACCACGTGTGGGT was tested, and the “relative binding free energy” value was -0.11 kcal/mol. With TGGAACACGTGCAGGT the “relative binding free energy” value was -0.04 kcal/mol. For TGTTACACGTGGGGAT, the “relative binding free energy” value was 0 kcal/mol. With GGTTGCACGTGTTTAT the “relative binding free energy” value was 0.08 kcal/mol. In the case of AGGGGCACGTGACTTG, the “relative binding free energy” value is reported as 0.02 kcal/mol. For CTATTCACGTGGGGGC, the “relative binding free energy” value was 0.17 kcal/mol. For CAGTTCACGTGAAAGG, the “relative binding free energy” value was 0.34 kcal/mol. CGCGTCACGTGGGGTA was tested, and the “relative binding free energy” value was -0.1 kcal/mol. TTAATCACGTGAAGTG was tested, and the “relative binding free energy” value was 0.23 kcal/mol. For AATACCACGTGTGGGG, the “relative binding free energy” value was -0.08 kcal/mol. In the case of TGTTGCACGTGGTCCT, the “relative binding free energy” value is reported as -0.12 kcal/mol. For GGGCGCACGTGATTGC, the “relative binding free energy” value was 0.24 kcal/mol. GTTAACACGTGCTTGT was tested, and the “relative binding free energy” value was 0.01 kcal/mol. For GGAGACACGTGGTGCA, the “relative binding free energy” value was 0.03 kcal/mol. For GGGGGCACGTGGGCTG, the “relative binding free energy” value was -0.24 kcal/mol. For CTAATCACGTGGGTTT, the “relative binding free energy” value was 0.12 kcal/mol. With AGCTTCACGTGTTGAT the “relative binding free energy” value was 0.1 kcal/mol. GTGGACACGTGTAATG was tested, and the “relative binding free energy” value was 0.26 kcal/mol. In the case of TGGATCACGTGCTTTT, the “relative binding free energy” value is reported as 0.1 kcal/mol. In the case of CGTCTCACGTGTGTGT, the “relative binding free energy” value is reported as 0.18 kcal/mol. In the case of TGCTTCACGTGTCGTT, the “relative binding free energy” value is reported as 0.19 kcal/mol. With TCCGGCACGTGGGTTG the “relative binding free energy” value was -0.12 kcal/mol. In the case of GGGTACACGTGAGGCC, the “relative binding free energy” value is reported as 0.44 kcal/mol. In the case of GCGCGCACGTGGGGGC, the “relative binding free energy” value is reported as -0.21 kcal/mol. In the case of TTGTACACGTGAGTGG, the “relative binding free energy” value is reported as 0.19 kcal/mol. CATGTCACGTGGTGGC was tested, and the “relative binding free energy” value was -0.07 kcal/mol. For TGATGCACGTGTGAAT, the “relative binding free energy” value was 0.08 kcal/mol. With GGGCGCACGTGATGTG the “relative binding free energy” value was 0.08 kcal/mol. For TGTTGCACGTGTCTAA, the “relative binding free energy” value was 0.11 kcal/mol. For TGCGTCACGTGTCGGG, the “relative binding free energy” value was 0.01 kcal/mol. GCAGACACGTGGGTTG was tested, and the “relative binding free energy” value was -0.1 kcal/mol. In the case of ATTATCACGTGACTTG, the “relative binding free energy” value is reported as 0.15 kcal/mol. With AGGGACACGTGTTAAG the “relative binding free energy” value was -0.06 kcal/mol. With GTTGGCACGTGGTCTA the “relative binding free energy” value was -0.03 kcal/mol. AGGAACACGTGGGACG was tested, and the “relative binding free energy” value was 0.01 kcal/mol. With TATGCCACGTGTGGTT the “relative binding free energy” value was -0.05 kcal/mol. In the case of GTCGACACGTGGTGGC, the “relative binding free energy” value is reported as 0.12 kcal/mol. TTGCGCACGTGTGGTT was tested, and the “relative binding free energy” value was 0.03 kcal/mol. In the case of TTTGACACGTGAGGGC, the “relative binding free energy” value is reported as 0.23 kcal/mol. GACTGCACGTGTCGGG was tested, and the “relative binding free energy” value was 0.12 kcal/mol. With TAAGGCACGTGGGGCG the “relative binding free energy” value was -0.24 kcal/mol. TTGTACACGTGTAGAA was tested, and the “relative binding free energy” value was 0.27 kcal/mol. With ATGGGCACGTGGTAGC the “relative binding free energy” value was -0.17 kcal/mol. For TTTTGCACGTGTAAAT, the “relative binding free energy” value was 0.2 kcal/mol. GAGGGCACGTGAGTAC was tested, and the “relative binding free energy” value was 0.16 kcal/mol. ATCATCACGTGTATGG was tested, and the “relative binding free energy” value was 0.11 kcal/mol. In the case of CTGTGCACGTGAGTGG, the “relative binding free energy” value is reported as 0.19 kcal/mol. For CTTGGCACGTGTGTTA, the “relative binding free energy” value was -0.1 kcal/mol. CAGAGCACGTGGTTTT was tested, and the “relative binding free energy” value was 0.02 kcal/mol. TCGATCACGTGATGGT was tested, and the “relative binding free energy” value was 0.29 kcal/mol. For CATTTCACGTGGGGAG, the “relative binding free energy” value was 0.18 kcal/mol. For TGGTCCACGTGGGGTT, the “relative binding free energy” value was -0.14 kcal/mol. For AGTTACACGTGAAATT, the “relative binding free energy” value was 0.29 kcal/mol. In the case of CCTATCACGTGGGGTT, the “relative binding free energy” value is reported as 0 kcal/mol. In the case of TTAGTCACGTGCTAGC, the “relative binding free energy” value is reported as 0.2 kcal/mol. GGTGTCACGTGGTATT was tested, and the “relative binding free energy” value was 0.12 kcal/mol. With TTGGCCACGTGTTTGC the “relative binding free energy” value was -0.12 kcal/mol. With GAGTACACGTGGAGGG the “relative binding free energy” value was 0.13 kcal/mol. For CTTAGCACGTGGGTGT, the “relative binding free energy” value was -0.15 kcal/mol. For ATTAACACGTGGTTAA, the “relative binding free energy” value was -0.03 kcal/mol. In the case of TTGCTCACGTGGGTGT, the “relative binding free energy” value is reported as 0.04 kcal/mol. For TTGGCCACGTGGGTTT, the “relative binding free energy” value was -0.09 kcal/mol. For TTATCCACGTGTTGGG, the “relative binding free energy” value was -0.02 kcal/mol. In the case of TAGGACACGTGCTAGG, the “relative binding free energy” value is reported as 0.06 kcal/mol. For GAGGTCACGTGGGGGA, the “relative binding free energy” value was 0.01 kcal/mol. In the case of TGGTACACGTGCGGAA, the “relative binding free energy” value is reported as 0.09 kcal/mol. With GGGTTCACGTGGGCAA the “relative binding free energy” value was 0.17 kcal/mol. ATGTTCACGTGGTGTG was tested, and the “relative binding free energy” value was 0.23 kcal/mol. GGAGTCACGTGGTACA was tested, and the “relative binding free energy” value was 0.04 kcal/mol. In the case of GGAATCACGTGAGTGA, the “relative binding free energy” value is reported as 0.18 kcal/mol. In the case of CTGTTCACGTGTTGGA, the “relative binding free energy” value is reported as 0.34 kcal/mol. CTAAGCACGTGGAGTG was tested, and the “relative binding free energy” value was -0.15 kcal/mol. In the case of ATGGTCACGTGCGATA, the “relative binding free energy” value is reported as 0.11 kcal/mol. GCGGTCACGTGTGGTA was tested, and the “relative binding free energy” value was 0.35 kcal/mol. For TTGGCCACGTGATATG, the “relative binding free energy” value was 0.01 kcal/mol. For GTTATCACGTGTAGTT, the “relative binding free energy” value was 0.21 kcal/mol. TCGGTCACGTGTACGG was tested, and the “relative binding free energy” value was 0.04 kcal/mol. GGTGTCACGTGTGAAT was tested, and the “relative binding free energy” value was 0.21 kcal/mol. TGAGTCACGTGACTTG was tested, and the “relative binding free energy” value was 0.17 kcal/mol. With AGAATCACGTGGTTGA the “relative binding free energy” value was 0.09 kcal/mol. TTCATCACGTGGGCTG was tested, and the “relative binding free energy” value was 0.01 kcal/mol. With TGGCTCACGTGGCGGT the “relative binding free energy” value was 0.18 kcal/mol. With TTTGACACGTGGATGA the “relative binding free energy” value was 0.04 kcal/mol. GGTGTCACGTGTATGT was tested, and the “relative binding free energy” value was 0.13 kcal/mol. For ATCGTCACGTGGAGTA, the “relative binding free energy” value was 0.07 kcal/mol. For GAATACACGTGAAGGT, the “relative binding free energy” value was 0.41 kcal/mol. For ATTCTCACGTGATGGT, the “relative binding free energy” value was 0.28 kcal/mol. For GAGGTCACGTGTAGAA, the “relative binding free energy” value was 0.31 kcal/mol. TGAAGCACGTGGTGTC was tested, and the “relative binding free energy” value was -0.11 kcal/mol. AAAGGCACGTGGTTGC was tested, and the “relative binding free energy” value was -0.1 kcal/mol. In the case of ACAGGCACGTGTTGTG, the “relative binding free energy” value is reported as -0.14 kcal/mol. For GTTGGCACGTGTTGTG, the “relative binding free energy” value was 0 kcal/mol. In the case of AACGGCACGTGGGAGT, the “relative binding free energy” value is reported as -0.15 kcal/mol. In the case of TACTGCACGTGAAGGT, the “relative binding free energy” value is reported as 0.13 kcal/mol. CTATACACGTGGGTTT was tested, and the “relative binding free energy” value was -0.15 kcal/mol. With TTCGTCACGTGGGTCG the “relative binding free energy” value was -0.11 kcal/mol. In the case of AGTGCCACGTGTAGGG, the “relative binding free energy” value is reported as -0.13 kcal/mol. GTTTTCACGTGAGTTG was tested, and the “relative binding free energy” value was 0.45 kcal/mol. CGGGCCACGTGGGGGT was tested, and the “relative binding free energy” value was -0.28 kcal/mol. With TGTGTCACGTGTGTTA the “relative binding free energy” value was 0.06 kcal/mol. With GTGTGCACGTGCAGGA the “relative binding free energy” value was 0.06 kcal/mol. For TATTGCACGTGATAAG, the “relative binding free energy” value was 0.13 kcal/mol. TTCGGCACGTGGGTGA was tested, and the “relative binding free energy” value was -0.13 kcal/mol. For AGGAGCACGTGTCGGG, the “relative binding free energy” value was -0.1 kcal/mol. With AGTGGCACGTGCTTCG the “relative binding free energy” value was 0.04 kcal/mol. In the case of TTAAACACGTGGGAAA, the “relative binding free energy” value is reported as 0.07 kcal/mol. In the case of GGAGTCACGTGTTATT, the “relative binding free energy” value is reported as 0.16 kcal/mol. AAAAGCACGTGATGGT was tested, and the “relative binding free energy” value was -0.06 kcal/mol. In the case of CGTGGCACGTGCGGGT, the “relative binding free energy” value is reported as -0.32 kcal/mol. With TAGTACACGTGGGGGC the “relative binding free energy” value was -0.11 kcal/mol. For GTGGTCACGTGGCGGG, the “relative binding free energy” value was 0.17 kcal/mol. In the case of TATAGCACGTGGATGT, the “relative binding free energy” value is reported as -0.07 kcal/mol. With GGTCGCACGTGGAGAT the “relative binding free energy” value was 0.01 kcal/mol. In the case of GAGGGCACGTGATAGT, the “relative binding free energy” value is reported as -0.05 kcal/mol. For TATTACACGTGCTTTA, the “relative binding free energy” value was 0.01 kcal/mol. TGCTACACGTGATTTA was tested, and the “relative binding free energy” value was 0.38 kcal/mol. With GCTGGCACGTGAGGAT the “relative binding free energy” value was 0.05 kcal/mol. With GGGATCACGTGTAAGG the “relative binding free energy” value was 0.21 kcal/mol. With GTGGACACGTGATTAG the “relative binding free energy” value was 0.24 kcal/mol. In the case of CGTTTCACGTGTTGGC, the “relative binding free energy” value is reported as 0.4 kcal/mol. In the case of GTGGTCACGTGATACT, the “relative binding free energy” value is reported as 0.4 kcal/mol. In the case of GTTATCACGTGGGTGC, the “relative binding free energy” value is reported as -0.09 kcal/mol. TTCGGCACGTGGGTAT was tested, and the “relative binding free energy” value was -0.14 kcal/mol.
